# In PubChem BioAssay AID2147 (National Center for Advancing Translational Sciences (NCATS), 2009):
# Where “and” joins values, the source holds several entries; their conditions need not be identical. Equal entries are not always repeated. About 3,600 (1.6%) of roughly 230,000 compounds were called active. The inconclusive results got no clear call from the source; some entries with a clear call stand among them for comparison. Calls come from the whole dose curve; as a rule, active = well fitted inhibition curve with a large enough effect (not every such curve was filed as active); inconclusive = small, poorly fitted or top-dose-only effect, or another doubt; inactive = no such curve, though single readings can be large or run the other way. Potencies of inconclusive entries are doubtful fits and often do not repeat. More than one record can exist for a structure, and the calls need not agree.
# Molecular target: Lysine-specific demethylase 4E (Homo sapiens) (UniProt B2RXH2)
# Assay: qHTS Assay for Inhibitors of Human Jumonji Domain Containing 2E (JMJD2E)
# Settings: JMJD2E catalytic domain, FDH-coupled NADH fluorescence (FDH is formaldehyde dehydrogenase); series mostly up to 57.1 µM; activity change, negative = inhibition: at the top concentration
# Note: nearly all actives have a fitted effect of over 50% in size.
# Potency is the fitted concentration of half-maximal effect; tags give direction and shape of the fitted curve.
# 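Throughout, for activity change, negative = inhibition: 0% = wells with enzyme and -100% = buffer wells without enzyme.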
# Chain of UniProt B2RXH2 (B2RXH2 whole entry, looked up, the tested form may be a part): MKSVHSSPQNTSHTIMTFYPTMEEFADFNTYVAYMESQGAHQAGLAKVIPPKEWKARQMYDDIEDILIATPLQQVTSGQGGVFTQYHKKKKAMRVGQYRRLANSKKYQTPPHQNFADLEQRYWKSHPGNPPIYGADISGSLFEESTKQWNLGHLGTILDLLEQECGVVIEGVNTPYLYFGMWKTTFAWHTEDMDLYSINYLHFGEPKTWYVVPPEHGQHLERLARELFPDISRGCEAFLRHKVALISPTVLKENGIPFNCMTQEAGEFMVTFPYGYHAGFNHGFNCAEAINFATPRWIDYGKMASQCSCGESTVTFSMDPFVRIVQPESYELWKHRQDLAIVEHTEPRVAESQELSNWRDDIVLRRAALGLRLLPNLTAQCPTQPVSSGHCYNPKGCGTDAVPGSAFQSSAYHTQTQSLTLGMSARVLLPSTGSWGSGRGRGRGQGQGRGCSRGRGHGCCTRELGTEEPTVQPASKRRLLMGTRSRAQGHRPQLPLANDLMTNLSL
Compound,Potency,"activity change, negative = inhibition"
COc1ccccc1NC(=O)Cn1nnc(-c2ccccc2NC(=O)c2cccs2)n1,"inconclusive: 31.6 µM [inhibitor, single point]",–
O=C(Nc1nnc(SCc2ccc(F)cc2)s1)c1ccco1,"inconclusive: 39.8 µM [inhibitor, single point]",–
O=C(Nc1ccc(Cl)cc1)Nc1nnc(CSCc2ccccc2Cl)s1,–,inactive: -4.13%
O=C(/C=C/c1ccccc1Cl)N(Cc1ccccc1)C1CCS(=O)(=O)C1 (stereo not given),–,inactive: 4.23%
c1ccc(-n2c(-c3ccncc3)nnc2-c2ccco2)cc1,"inconclusive: 25.1 µM [inhibitor, single point]",–
CC1CCCCN1C(=O)COC(=O)/C=C/c1ccc2ccccc2n1 (stereo not given),"inconclusive: 28.2 µM [inhibitor, single point]",–
Cc1ccc(C(=O)NNC(=O)C2CCN(c3nccc(C)n3)CC2)cc1,"inconclusive: 28.2 µM [inhibitor, partial curve]",–
O=C(CCCCN1CCCCC1)c1ccc2c(c1)Cc1ccccc1-2,"inconclusive: 17.8 µM [inhibitor, partial curve]",–
COCc1nc(-c2ccc(-c3ccc(C)cc3)nc2OC)no1,"inconclusive: 31.6 µM [inhibitor, single point]",–
O=C(Cc1ccccc1)Nc1ccc(NC(=O)c2cccs2)cc1,"inconclusive: 39.8 µM [inhibitor, single point]",–
O=C(NCCc1csc(-c2cccnc2)n1)c1ccccc1Br,"inconclusive: 28.2 µM [inhibitor, single point]",–
Cc1cc(C)n(-c2cc(O)c(-n3nc(C)cc3C)cc2O)n1,"inconclusive: 31.6 µM [inhibitor, single point]",–
CCOC(=O)Cn1nnnc1C(C(C)C)N(Cc1cccs1)Cc1cc2cc(C)ccc2[nH]c1=O (stereo not given),"inconclusive: 35.5 µM [inhibitor, single point]",–
Cc1noc(NS(=O)(=O)c2ccc(NC(=O)COc3ccccc3)cc2)c1C,–,inactive: -1.15%
COc1cc(OC)c(N(C)S(=O)(=O)c2cccc(C(=O)NC3=NCCS3)c2)cc1Cl,"inconclusive: 35.5 µM [inhibitor, single point]",–
C#CCNC(=O)C1CCN(c2cc(C)nc(-c3ccccc3)n2)CC1,–,inactive: -24.3%
COC(=O)C(C(=O)Nc1ccccc1C)C1CCCCCC1 (stereo not given),–,inactive: 9.91%
COC(=O)C1=C(C(=O)OC)C2C(C)=CC(C)=CN2C(C(=O)OC)=C1C(=O)OC (stereo not given),"inconclusive: 31.6 µM [inhibitor, partial curve]",–
O=C(Nc1ccc(Cl)cc1Cl)N1CCN(c2ncccn2)CC1,"inconclusive: 39.8 µM [inhibitor, single point]",–
CCCn1c(C(=O)OC)cc2c1ccn2-c1ccc(F)cc1,"inconclusive: 35.5 µM [inhibitor, single point]",–
CCCCC/C=C\C/C=C\CCCCCCCC(=O)NC(C)C(=O)O (stereo not given),–,inactive: 2.75%
CC1=NOC(=O)/C1=C\c1ccc(-c2ccc(Cl)c(C(=O)O)c2)o1,"inconclusive: 17.8 µM [inhibitor, partial curve]",–
N#Cc1cccc(NC(=O)CSc2nnc(-c3n[nH]c4ccccc34)o2)c1,"inconclusive: 35.5 µM [inhibitor, single point]",–
N[C@H](C(=O)N[C@@H]1C(=O)N2C(C(=O)O)=C(Cl)CS[C@@H]12)c1ccccc1,inactive and active: 14.1 µM,–

Compound,Potency,"activity change, negative = inhibition"
NC(=O)c1ccc(-n2c(CCC(=O)O)ccc2-c2cccs2)cc1,–,inactive: -1.19%
Cc1ccc2cc(CCNC(=O)CC(C)C)c(=O)[nH]c2c1,"inconclusive: 25.1 µM [inhibitor, partial curve]",–
Oc1cc2c(cc1O)[C@@H]1c3ccc(O)c(O)c3OC[C@]1(O)C2,active: 14.1 µM,–
Cc1onc(-c2ccccc2)c1CNC(=O)C1COc2ccccc2O1 (stereo not given),–,inactive: -4.56%
Cc1cccc(C)c1Nc1ncnc(N)c1[N+](=O)[O-],–,inactive: 0.55%
CN1CCN(C(=O)c2cc3ccccc3oc2=O)CC1,"inconclusive: 25.1 µM [inhibitor, single point]",–
Cc1ccc(CNC(=O)c2cn(C3CCCC3)c(=O)c3c2c2ccccc2n3C)o1,"inconclusive: 15.8 µM [inhibitor, partial curve]",–
CC(C)NC(=O)CCCc1cn(C)c2ccccc12,"inconclusive: 28.2 µM [inhibitor, single point]",–
CCN(CC)c1ccc(-c2nn3c(-c4cccnc4)nnc3s2)cc1,"inconclusive: 7.08 µM [inhibitor, full curve]",–
Cc1[nH]c(C(=O)N/N=C/c2ccc(N(C)C)cc2)c(C)c1C(=O)N/N=C/c1ccc(N(C)C)cc1,"inconclusive: 22.4 µM [inhibitor, partial curve]",–
COC(=O)C1=CN(Cc2cccs2)C=C(C(=O)OC)C1c1cccc(OC)c1OC,"inconclusive: 8.91 µM [inhibitor, partial curve]",–
O=C(CSc1ccc2nnc(-c3cccnc3)n2n1)N1CCOCC1,"inconclusive: 31.6 µM [inhibitor, partial curve]",–
S=c1[nH]nc(-c2cc(-c3ccco3)[nH]n2)n1-c1ccccc1,"inconclusive: 25.1 µM [inhibitor, single point]",–
O=C(C1CC1)N1CCN(C(c2ccccc2)c2ccccc2)CC1,–,inactive: 11.6%
CC1CCCC(C(=O)O)N1C(=O)CCSSCCC(=O)N1C(C)CCCC1C(=O)O (stereo not given),–,inactive: 0.123%
COc1ccc(OC)c(NC(=O)C(=O)NNC(=O)COc2ccc(Br)cc2C)c1,"inconclusive: 28.2 µM [inhibitor, partial curve]",–
CCSc1n[nH]c2nc3c(c(=O)n12)C1(CCCC1)Cc1ccccc1-3,"inconclusive: 10 µM [inhibitor, partial curve]",–
Oc1c(Cl)cc(Cl)cc1C=Nc1cc(C(F)(F)F)ccc1N1CCc2ccccc2C1,"inconclusive: 28.2 µM [inhibitor, partial curve]",–
CCCCOC(=O)Nc1nnc(/C=C/c2ccc(OC)cc2)s1,"inconclusive: 20 µM [inhibitor, partial curve]",–
Cc1ccc(C(=O)Nn2c(O)c(C=C3N=c4ccccc4=N3)sc2=S)cc1,–,inactive: -4.33%
CCOC1=NN(c2ncc(C(F)(F)F)cc2Cl)C(=O)/C1=C/N(C)C,–,inactive: -1.33%
COc1ccc(N=Cc2[nH]c3ccccc3c2O)cc1,"inconclusive: 22.4 µM [inhibitor, partial curve]",–
COc1ccc(C)cc1NC(=O)c1cc2c(=O)n3ccccc3nc2n1C,"inconclusive: 15.8 µM [inhibitor, partial curve]",–
CCCCC(=O)NC(c1ccco1)c1cc(Cl)c2cccnc2c1O (stereo not given),–,inactive: -3.05%

Compound,Potency,"activity change, negative = inhibition"
COc1ccc2[nH]c3c(=O)n(CCN4CCOCC4)cnc3c2c1,"inconclusive: 28.2 µM [inhibitor, partial curve]",–
Cc1cccc(N(C)C(=O)c2cc3cc4ccc(C)cc4nc3o2)c1,"inconclusive: 25.1 µM [inhibitor, single point]",–
c1ccc(CCSc2nccn2-c2ccccc2)cc1,–,inactive: 2.18%
CC(=O)Nc1ccc(S(=O)(=O)NCC2CCC(C(=O)NCc3ccccc3)CC2)cc1 (stereo not given),–,inactive: 13.7%
O=C(NCCCN1CCCC1=O)c1ccccc1NS(=O)(=O)c1ccc(F)cc1,"inconclusive: 35.5 µM [inhibitor, partial curve]",–
CCCOC(=O)c1c(NC(=O)/C=C/c2cnn(C)c2C)sc(C(=O)OCC)c1C,"inconclusive: 14.1 µM [inhibitor, single point]",–
O=C(Cn1c2ccccc2c(=O)c2ccccc21)N/N=C/c1cc([N+](=O)[O-])ccc1N1CCCCC1,"inconclusive: 31.6 µM [inhibitor, partial curve]",–
COc1ccc(NCc2ccccc2[N+](=O)[O-])cc1OC,"inconclusive: 25.1 µM [inhibitor, single point]",–
CCCCOC(=O)/C(=C/c1cn(C)c2ccccc12)NC(=O)c1ccc(OC)cc1,–,inactive: 6.37%
COc1ccc(N2C(=O)C3CCCN3C2c2cccc(C)c2)cc1Cl (stereo not given),–,inactive: -3.94%
CC(=O)N(Cc1cccnc1)Cc1cc2ccccc2[nH]c1=O,"inconclusive: 28.2 µM [inhibitor, single point]",–
COc1ccc(C(=O)NC(=S)Nc2ccc(CN3CCOCC3)cc2)cc1OC,–,inactive: 5.18%
O=C(NCc1ccco1)c1ccc(S(=O)(=O)N2CCCc3ccccc32)cc1,–,inactive: 8.24%
COc1ccc(C(=O)NCc2ccc3c(c2)cc(C)n3C)cc1,"inconclusive: 39.8 µM [inhibitor, single point]",–
COc1ccc(-c2n(CC(=O)OC3CC(C)CCC3C(C)C)c3ccccc3[n+]2C)cc1 (stereo not given),–,inactive: -4.24%
CCN(CC)S(=O)(=O)c1ccc(NCc2ccccc2)nc1,"inconclusive: 39.8 µM [inhibitor, single point]",–
C#CCOCCOCCOCCNc1nc(N2CCN(C(=O)[C@H](CCC(=O)O)n3cc(C(N)Cc4ccc(O)cc4)nn3)CC2)nc(N2CCN(C(=O)[C@H](Cc3ccc(O)cc3)n3cc(C(N)[C@H](C)CC)nn3)CC2)n1 (stereo not given in full),"inconclusive: 31.6 µM [inhibitor, single point]",–
C=CCNC(=O)c1ccccc1NC(=O)c1ccccc1N(C)S(C)(=O)=O,–,inactive: -6.62%
CC(=C1C(=O)c2ccccc2C1=O)N1CCc2ccccc2C1,–,inactive: 3.62%
CN(C)c1ccc(C(=C2C=CC(=[N+](C)C)C=C2)c2ccc(N(C)C)cc2)cc1,"inconclusive: 39.8 µM [inhibitor, single point]",–
Cc1nnc(NC(=O)CSc2ccc(-c3ccc(Cl)cc3)nn2)s1,"inconclusive: 39.8 µM [inhibitor, single point]",–
COc1ccc(C2Nc3ccccc3C(=O)N2Cc2ccco2)cc1COc1ccc(NC(C)=O)cc1 (stereo not given),"inconclusive: 31.6 µM [inhibitor, partial curve]",–
